The campaign covered roughly 48,000 compounds. About 550 (1.1%) were called active. Not shown: some 4% with an inconclusive outcome. Rule as the data show it: active = potency below about 15 µM; inconclusive = mostly about 16 µM to 33 µM; inactive = weaker than that. Some of the results follow.
Target: Lysosomal acid glucosylceramidase (Homo sapiens) (UniProt P04062)
Assay: Glucocerebrosidase;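 also: the screen sought inhibitors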
Details: purified enzyme, resorufin glucoside fluorescence (screen aimed at inhibitors), 20 min
In short: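 Compounds titrated against 0.2 nM normal enzyme, 30 uM resorufin beta-D-glucopyranoside substrate, citrate/phosphate buffer with taurocholate and tween-20, pH 5.9. Reaction ran 20 min at room temperature; fluorescence (Ex 548/Em 600) gave AC50.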
Potency is read from the fitted curve at half-maximal effect.

UniProt P04062, sequence (P04062 whole entry, looked up): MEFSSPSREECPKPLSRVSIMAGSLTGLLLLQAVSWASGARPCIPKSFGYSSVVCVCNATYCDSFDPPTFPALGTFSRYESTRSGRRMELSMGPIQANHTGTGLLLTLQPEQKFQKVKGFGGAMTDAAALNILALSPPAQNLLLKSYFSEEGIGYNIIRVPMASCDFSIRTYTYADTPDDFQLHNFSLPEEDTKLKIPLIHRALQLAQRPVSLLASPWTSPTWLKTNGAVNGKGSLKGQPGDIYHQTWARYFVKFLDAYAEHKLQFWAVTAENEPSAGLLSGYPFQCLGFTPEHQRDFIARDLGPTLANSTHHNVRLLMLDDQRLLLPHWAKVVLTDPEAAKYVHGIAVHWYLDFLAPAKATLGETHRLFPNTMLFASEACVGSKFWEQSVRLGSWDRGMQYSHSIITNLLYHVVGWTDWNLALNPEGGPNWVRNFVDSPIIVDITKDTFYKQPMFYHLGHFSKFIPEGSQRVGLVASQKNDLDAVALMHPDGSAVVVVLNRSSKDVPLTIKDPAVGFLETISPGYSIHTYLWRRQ

Potency, inactive:
COc1ccc(C(=O)CSc2cc(C)nc3nc(C)nn23)cc1OC > 76.9 µM
COc1ccccc1Cn1c(=O)[nH]c2cccnc21 > 76.9 µM
NC(=O)CSc1oc(-c2ccc(F)cc2)nc1S(=O)(=O)c1ccccc1 > 76.9 µM
O=c1[nH]c2cc3c(cc2cc1C(c1nnnn1C1CCCC1)N1CCCc2ccccc21)OCCO3 (stereo unspecified) > 76.9 µM
CCCn1nnnc1NCc1ccccc1OCc1cccs1 > 76.9 µM
Cc1ccc(CNC(=O)c2oc3ccc(S(=O)(=O)N4CCC5(CC4)OCCO5)cc3c2C)cc1 > 76.9 µM
O=C(CCc1ccccc1)Nc1cccc(-c2nnc(-c3ccco3)o2)c1 > 76.9 µM
CCn1c(=O)c2cc(S(=O)(=O)NCCOc3ccccc3)ccc2n(CC)c1=O > 76.9 µM
COc1ccc(N(C)C(=O)CCS(=O)(=O)c2cccc3nonc23)c(OC)c1 > 76.9 µM
Cc1ccc(N2CCN(C(=O)c3ccccc3Br)CC2)c(C)c1 > 76.9 µM
CCn1c(SCc2nc3ccccc3[nH]2)nnc1-c1ccccc1OC > 76.9 µM
CCCn1nnnc1SCC(=O)NCc1ccccc1 > 76.9 µM
Cc1cc(C(C)(C)C)oc1C(=O)N1CCN(C(=O)c2oc(C(C)(C)C)cc2C)CC1 > 76.9 µM
Cc1ccccc1C1=NC(c2ccc(F)cc2F)ON1 (stereo unspecified) > 76.9 µM
Cc1nc2ccccc2c2oc(C(=O)NCC3CCCO3)cc12 (stereo unspecified) > 76.9 µM
O=C(c1cc2nc(-c3ccccc3)cc(C(F)(F)F)n2n1)N1CCCC1 > 76.9 µM
O=C(OCCN1C(=O)c2ccccc2C1=O)c1cnccn1 > 76.9 µM
Cc1cc(C(=O)Nc2ccccn2)no1 > 76.9 µM
COc1ccc(OC)c(C(=O)CSc2nnc(-c3cccs3)n2C)c1 > 76.9 µM
COC(=O)n1c(=O)oc2ccccc21 > 76.9 µM
Cc1nc(SCc2c(F)cccc2Cl)n[nH]1 > 76.9 µM
NC(=O)SC/C(=N\S(=O)(=O)c1ccccc1)Nc1ccccc1 > 76.9 µM
Cc1csc2nc(CSc3ccc(Cl)cc3)cn12 > 76.9 µM
CCC1CCc2c(sc(NC(=O)c3ccoc3C)c2C(N)=O)C1 (stereo unspecified) > 76.9 µM
O=C(C1CCCCC1)N1CCC(n2nnc3ccccc32)CC1 > 76.9 µM
COc1ccc2nc3sc(C(=O)NCc4cccs4)c(N)c3cc2c1 > 76.9 µM

Reference: PubChem BioAssay AID360 (National Center for Advancing Translational Sciences (NCATS), 2006)
